Experimental data reported in publication PMC10476561.
No constants are given. Whether binding was seen depends on the method and setting. Binding seen in cells or lysates may run through a third protein. Some entries that bind do so weakly or less than the wild type. For part of these data: Tags and fused reporters may be left off the sequences shown.

Chains of the proteins cited; added tags and fusions are not shown.
UniProt P49736: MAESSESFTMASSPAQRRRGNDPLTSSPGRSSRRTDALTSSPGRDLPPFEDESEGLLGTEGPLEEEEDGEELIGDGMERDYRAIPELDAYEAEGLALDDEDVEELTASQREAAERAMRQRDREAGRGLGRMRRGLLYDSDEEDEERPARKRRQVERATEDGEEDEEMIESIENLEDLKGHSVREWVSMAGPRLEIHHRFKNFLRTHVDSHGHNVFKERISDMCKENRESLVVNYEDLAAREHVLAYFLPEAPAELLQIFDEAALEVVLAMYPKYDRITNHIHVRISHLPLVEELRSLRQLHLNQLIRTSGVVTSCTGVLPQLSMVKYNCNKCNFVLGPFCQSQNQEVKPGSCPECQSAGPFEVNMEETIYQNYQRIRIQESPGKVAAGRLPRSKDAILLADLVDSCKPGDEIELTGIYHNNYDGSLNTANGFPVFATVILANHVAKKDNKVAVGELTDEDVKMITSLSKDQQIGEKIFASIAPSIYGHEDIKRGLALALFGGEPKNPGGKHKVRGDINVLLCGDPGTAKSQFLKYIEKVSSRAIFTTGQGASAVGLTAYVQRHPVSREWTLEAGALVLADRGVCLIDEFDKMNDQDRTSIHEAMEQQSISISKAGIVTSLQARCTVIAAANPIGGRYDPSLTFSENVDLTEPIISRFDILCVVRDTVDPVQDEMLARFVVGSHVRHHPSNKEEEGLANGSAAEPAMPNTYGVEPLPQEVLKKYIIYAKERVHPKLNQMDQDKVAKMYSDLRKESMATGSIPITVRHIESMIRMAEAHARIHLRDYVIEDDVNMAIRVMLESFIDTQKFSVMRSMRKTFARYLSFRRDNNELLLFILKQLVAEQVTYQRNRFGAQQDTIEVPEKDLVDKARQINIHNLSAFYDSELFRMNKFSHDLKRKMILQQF
UniProt Q05086: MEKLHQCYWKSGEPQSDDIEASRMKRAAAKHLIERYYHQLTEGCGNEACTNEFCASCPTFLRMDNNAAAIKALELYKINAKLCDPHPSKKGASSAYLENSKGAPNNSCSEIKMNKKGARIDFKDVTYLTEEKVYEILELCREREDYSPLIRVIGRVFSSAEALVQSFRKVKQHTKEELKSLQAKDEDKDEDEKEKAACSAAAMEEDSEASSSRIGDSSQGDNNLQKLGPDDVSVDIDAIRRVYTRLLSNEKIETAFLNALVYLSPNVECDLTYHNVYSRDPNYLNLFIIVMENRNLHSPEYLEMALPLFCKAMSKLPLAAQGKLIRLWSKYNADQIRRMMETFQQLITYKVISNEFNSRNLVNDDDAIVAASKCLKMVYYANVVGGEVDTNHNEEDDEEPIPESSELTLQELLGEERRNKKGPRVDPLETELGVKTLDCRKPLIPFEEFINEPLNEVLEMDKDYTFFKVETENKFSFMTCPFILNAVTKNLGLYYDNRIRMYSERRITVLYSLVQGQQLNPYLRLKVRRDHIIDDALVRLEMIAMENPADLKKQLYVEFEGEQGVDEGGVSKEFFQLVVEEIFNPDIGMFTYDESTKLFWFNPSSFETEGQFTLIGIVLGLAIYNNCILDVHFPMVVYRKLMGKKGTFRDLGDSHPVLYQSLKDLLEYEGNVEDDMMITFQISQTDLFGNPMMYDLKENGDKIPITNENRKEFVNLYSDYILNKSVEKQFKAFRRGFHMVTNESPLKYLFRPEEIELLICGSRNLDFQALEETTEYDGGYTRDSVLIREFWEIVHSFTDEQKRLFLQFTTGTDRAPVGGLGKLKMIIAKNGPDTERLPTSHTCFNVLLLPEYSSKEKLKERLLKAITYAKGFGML

How the values were obtained:
Test in all cases: co-IP; HEK293T cotransfected with E6AP-HA and MCM2/4/6-Flag; lysis in 50 mM Tris-Cl, 150 mM NaCl, 5 mM EDTA, 1% NP-40, pH 7.8; anti-Flag affinity gel overnight at 4 °C; blots with anti-Flag and anti-HA
MCM2-Flag = MCM2-Flag (UniProt P49736)
MCM4-Flag = target: T1, MCM4-Flag (UniProt P33991)
T1 sequence: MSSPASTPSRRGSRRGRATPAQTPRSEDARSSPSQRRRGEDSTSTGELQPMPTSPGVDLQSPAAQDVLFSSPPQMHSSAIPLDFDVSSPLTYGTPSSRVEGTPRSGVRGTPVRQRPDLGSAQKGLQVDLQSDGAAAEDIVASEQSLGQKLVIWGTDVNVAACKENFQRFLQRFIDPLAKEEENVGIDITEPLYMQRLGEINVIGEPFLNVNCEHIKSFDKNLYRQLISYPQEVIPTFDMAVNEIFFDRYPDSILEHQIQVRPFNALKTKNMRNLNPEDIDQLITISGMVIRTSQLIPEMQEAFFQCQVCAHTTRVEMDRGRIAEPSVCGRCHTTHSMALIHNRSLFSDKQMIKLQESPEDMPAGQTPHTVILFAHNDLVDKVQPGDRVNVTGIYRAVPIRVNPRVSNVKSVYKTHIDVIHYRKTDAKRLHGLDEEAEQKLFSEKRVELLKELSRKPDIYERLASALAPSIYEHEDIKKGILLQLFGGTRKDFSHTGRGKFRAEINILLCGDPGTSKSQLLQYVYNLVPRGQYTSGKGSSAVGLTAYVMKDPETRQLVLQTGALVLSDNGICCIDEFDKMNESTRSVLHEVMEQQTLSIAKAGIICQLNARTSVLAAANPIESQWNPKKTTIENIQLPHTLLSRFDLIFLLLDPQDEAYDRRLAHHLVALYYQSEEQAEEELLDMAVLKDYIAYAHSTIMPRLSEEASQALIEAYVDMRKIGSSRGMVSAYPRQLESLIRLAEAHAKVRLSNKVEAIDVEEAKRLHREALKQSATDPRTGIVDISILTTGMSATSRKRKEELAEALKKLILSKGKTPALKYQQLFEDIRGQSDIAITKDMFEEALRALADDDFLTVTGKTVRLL

MCM6-Flag = target: T2, MCM6-Flag (UniProt Q14566)
T2 sequence: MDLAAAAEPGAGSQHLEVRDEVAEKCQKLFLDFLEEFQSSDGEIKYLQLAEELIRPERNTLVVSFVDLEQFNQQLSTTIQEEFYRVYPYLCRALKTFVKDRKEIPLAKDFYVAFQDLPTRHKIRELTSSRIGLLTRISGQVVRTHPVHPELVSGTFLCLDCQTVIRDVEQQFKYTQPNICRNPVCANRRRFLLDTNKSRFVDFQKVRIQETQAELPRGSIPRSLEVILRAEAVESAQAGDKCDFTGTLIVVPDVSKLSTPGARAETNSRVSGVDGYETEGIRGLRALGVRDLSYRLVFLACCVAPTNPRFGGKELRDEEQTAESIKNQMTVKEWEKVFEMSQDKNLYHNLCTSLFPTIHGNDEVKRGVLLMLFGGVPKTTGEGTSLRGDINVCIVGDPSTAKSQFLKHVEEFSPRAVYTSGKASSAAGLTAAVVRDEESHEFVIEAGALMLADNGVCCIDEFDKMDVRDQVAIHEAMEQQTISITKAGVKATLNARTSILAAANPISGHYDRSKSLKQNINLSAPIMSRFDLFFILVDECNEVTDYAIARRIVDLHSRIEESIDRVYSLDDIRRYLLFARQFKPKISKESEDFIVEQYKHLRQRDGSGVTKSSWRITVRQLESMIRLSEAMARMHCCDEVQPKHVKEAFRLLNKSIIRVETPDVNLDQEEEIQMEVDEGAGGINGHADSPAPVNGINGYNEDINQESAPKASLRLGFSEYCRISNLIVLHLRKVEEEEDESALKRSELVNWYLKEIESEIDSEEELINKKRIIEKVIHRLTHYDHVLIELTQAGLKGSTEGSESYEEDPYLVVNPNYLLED

binding (MCM2-Flag): binds
binding (MCM4-Flag): binds
binding (MCM6-Flag): binds
Substance: E6AP-HA (from UniProt Q05086 1-875) (enzyme)
